Holding throughout (test): HPLC/LC-MS prenyl transfer assay
Type in all cases: biochemical

For assay [1], the target named is T1, Tt06703 (Trichophyton tonsurans, UniProt F2S700).
T1 sequence (F2S700 1-436): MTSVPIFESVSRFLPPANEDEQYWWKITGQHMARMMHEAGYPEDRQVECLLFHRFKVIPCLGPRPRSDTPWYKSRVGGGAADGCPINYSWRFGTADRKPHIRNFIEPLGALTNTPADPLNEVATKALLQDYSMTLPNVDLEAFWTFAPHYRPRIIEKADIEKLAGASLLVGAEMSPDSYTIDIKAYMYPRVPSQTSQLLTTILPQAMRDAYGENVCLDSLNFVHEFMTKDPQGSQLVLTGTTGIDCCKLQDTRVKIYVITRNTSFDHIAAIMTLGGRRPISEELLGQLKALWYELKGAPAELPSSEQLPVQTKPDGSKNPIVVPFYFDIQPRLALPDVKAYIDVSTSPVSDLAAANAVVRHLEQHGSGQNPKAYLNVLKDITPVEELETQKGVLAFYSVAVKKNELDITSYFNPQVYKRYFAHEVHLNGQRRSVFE
Particulars: prenyl donor; acceptors 2, 4, 5, 11; 50 mM Tris-HCl pH 7.5, 30 °C.

For assay [2], the target named is T2, Nf112230 (Aspergillus fischeri, UniProt A1D8I8).
T2 sequence (A1D8I8 1-454): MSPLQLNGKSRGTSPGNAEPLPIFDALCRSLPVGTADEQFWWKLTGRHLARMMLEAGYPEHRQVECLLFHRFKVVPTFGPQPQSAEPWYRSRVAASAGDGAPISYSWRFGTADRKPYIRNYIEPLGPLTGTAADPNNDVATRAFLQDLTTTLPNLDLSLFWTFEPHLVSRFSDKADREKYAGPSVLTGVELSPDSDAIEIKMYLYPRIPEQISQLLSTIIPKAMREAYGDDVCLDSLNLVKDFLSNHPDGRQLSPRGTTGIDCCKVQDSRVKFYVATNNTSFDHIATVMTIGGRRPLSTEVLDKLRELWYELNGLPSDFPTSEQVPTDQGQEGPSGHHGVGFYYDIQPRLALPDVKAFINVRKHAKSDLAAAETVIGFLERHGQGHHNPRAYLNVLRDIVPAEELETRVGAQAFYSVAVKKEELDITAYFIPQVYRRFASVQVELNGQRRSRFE
The note with it: prenyl donor; acceptors 2, 4, 5; 50 mM Tris-HCl pH 7.5, 30 °C.

In assay [3] the target is T3, Mc03599 (Microsporum canis, UniProt C5FM58).
T3 sequence (C5FM58 1-436): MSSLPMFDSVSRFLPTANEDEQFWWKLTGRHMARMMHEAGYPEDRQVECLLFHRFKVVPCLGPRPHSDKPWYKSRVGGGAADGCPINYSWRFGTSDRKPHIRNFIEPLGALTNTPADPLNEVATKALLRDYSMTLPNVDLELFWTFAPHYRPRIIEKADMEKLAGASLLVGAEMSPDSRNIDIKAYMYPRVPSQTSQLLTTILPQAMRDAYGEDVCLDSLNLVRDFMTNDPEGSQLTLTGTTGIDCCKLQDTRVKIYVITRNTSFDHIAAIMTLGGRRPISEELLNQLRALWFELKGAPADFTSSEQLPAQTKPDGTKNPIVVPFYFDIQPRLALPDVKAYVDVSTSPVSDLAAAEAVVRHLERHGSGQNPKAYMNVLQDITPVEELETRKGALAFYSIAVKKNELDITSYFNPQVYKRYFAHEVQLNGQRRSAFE
The note with it: prenyl donor; acceptors 2, 4, 5, 11; 50 mM Tris-HCl pH 7.5, 30 °C.

SMILES strings stand for the structures.

For the compound `CC(C)=CCOP(=O)(O)OP(=O)(O)O` [DMAPP], the “HPLC/LC-MS prenyl transfer assay” value in assay [1], in assay [2] and in assay [3] was “these enzymes utilize DMAPP instead of GPP as the prenyl donor” each time.

The record behind these values is article PMC3904230 (Journal of the American Chemical Society, 2012).
